Patent US6077680A (The University of Florida, dated 2000)
Not every detail of the peptide structures is certain; ends, links or a residue may be inferred. Where a SMILES comes first, the peptide text is derived from it. Bridges are numbered along the chain shown (N, C = ends).

System: rat brain membrane K channels (primarily Kv1.2)
Type: binding

| SMILES | Difference of Free Energy of Binding | IC50 Ratio | Equipotent Molar Ratio (Analog IC50 /ShK IC50) | Free Energy Differ. of Binding ΔF | ΔF | also measured |
| --- | --- | --- | --- | --- | --- | --- |
| CC[C@H](C)[C@@H]1NC(=O)[C@@H](NC(=O)[C@H](CO)NC(=O)[C@@H](N)CCCNC(=N)N)CSSC[C@@H](C(=O)O)NC(=O)[C@H]([C@@H](C)O)NC(=O)CNC(=O)[C@@H]2CSSC[C@@H]3NC(=O)[C@H](CCC(N)=O)NC(=O)[C@H](Cc4ccccc4)NC(=O)[C@H](C)NC(=O)[C@H]([C@@H](C)O)NC(=O)[C@H](CSSC[C@H](NC(=O)[C@H](Cc4ccccc4)NC(=O)[C@H](CO)NC(=O)[C@H](CC(C)C)NC(=O)[C@H](CCCNC(=N)N)NC(=O)[C@H](Cc4ccc(O)cc4)NC(=O)[C@H](CCCCN)NC(=O)[C@H](CCSC)NC(=O)[C@H](CO)NC(=O)[C@H](Cc4c[nH]cn4)NC(=O)[C@H](CCCCN)NC3=O)C(=O)N[C@@H](CCCNC(=N)N)C(=O)N[C@@H](CCCCN)C(=O)N[C@@H]([C@@H](C)O)C(=O)N2)NC(=O)[C@H](CCCNC(=N)N)NC(=O)[C@H](CO)NC(=O)[C@H](CCC(=O)O)NC(=O)[C@@H]2CCCN2C(=O)[C@H]([C@@H](C)CC)NC(=O)[C@H]([C@@H](C)O)NC(=O)[C@H](CC(=O)O)NC1=O [compound 104] |  |  |  |  |  | Analog IC50 /ShK IC50: 3.57 |
| CCCC[C@@H]1NC(=O)[C@H](CO)NC(=O)[C@H](Cc2c[nH]cn2)NC(=O)[C@H](CCCCN)NC(=O)[C@@H]2CSSC[C@@H](C(=O)O)NC(=O)[C@H]([C@@H](C)O)NC(=O)[C@H](CCCCN)NC(=O)[C@H](CCCNC(=N)N)NC(=O)[C@H](CSSC[C@H](NC(=O)[C@H](CCCNC(=N)N)NC(=O)[C@H](CO)NC(=O)[C@@H](N)CCCCN)C(=O)N[C@@H]([C@@H](C)O)C(=O)N[C@@H](C)C(=O)N[C@@H](Cc3ccccc3)C(=O)N[C@@H](CCC(N)=O)C(=O)N2)NC(=O)[C@H](Cc2ccccc2)NC(=O)[C@H](CO)NC(=O)[C@H](CC(C)C)NC(=O)[C@H](CCCNC(=N)N)NC(=O)[C@H](Cc2ccc(O)cc2)NC(=O)[C@H](CCCCN)NC1=O [bicyclic] |  |  |  |  |  | IC50 ratio (IC50 analog/IC50 ShK): 1360 |
| CC[C@H](C)[C@@H]1NC(=O)[C@@H](NC(=O)[C@H](CO)NC(=O)[C@H](C)N)CSSC[C@@H](C(=O)O)NC(=O)[C@H]([C@@H](C)O)NC(=O)CNC(=O)[C@@H]2CSSC[C@@H]3NC(=O)[C@H](CCC(N)=O)NC(=O)[C@H](Cc4ccccc4)NC(=O)[C@H](C)NC(=O)[C@H]([C@@H](C)O)NC(=O)[C@H](CSSC[C@H](NC(=O)[C@H](Cc4ccccc4)NC(=O)[C@H](CO)NC(=O)[C@H](CC(C)C)NC(=O)[C@H](CCCNC(=N)N)NC(=O)[C@H](Cc4ccc(O)cc4)NC(=O)[C@H](CCCCN)NC(=O)[C@H](CCSC)NC(=O)[C@H](CO)NC(=O)[C@H](Cc4c[nH]cn4)NC(=O)[C@H](CCCCN)NC3=O)C(=O)N[C@@H](CCCNC(=N)N)C(=O)N[C@@H](CCCCN)C(=O)N[C@@H]([C@@H](C)O)C(=O)N2)NC(=O)[C@H](CCCNC(=N)N)NC(=O)[C@H](CO)NC(=O)[C@H](CCCCN)NC(=O)[C@@H]2CCCN2C(=O)[C@H]([C@@H](C)CC)NC(=O)[C@H]([C@@H](C)O)NC(=O)[C@H](CC(=O)O)NC1=O [R1A] | 0.23 | 1.5 |  |  |  |  |
| CC[C@H](C)[C@@H]1NC(=O)[C@@H](N)CSSC[C@@H](C(=O)O)NC(=O)[C@H]([C@@H](C)O)NC(=O)CNC(=O)[C@@H]2CSSC[C@@H]3NC(=O)[C@H](CCC(N)=O)NC(=O)[C@H](Cc4ccccc4)NC(=O)[C@H](C)NC(=O)[C@H]([C@@H](C)O)NC(=O)[C@H](CSSC[C@H](NC(=O)[C@H](Cc4ccccc4)NC(=O)[C@H](CO)NC(=O)[C@H](CC(C)C)NC(=O)[C@H](CCCNC(=N)N)NC(=O)[C@H](Cc4ccc(O)cc4)NC(=O)[C@H](CCCCN)NC(=O)[C@H](CCSC)NC(=O)[C@H](CO)NC(=O)[C@H](Cc4c[nH]cn4)NC(=O)[C@H](CCCCN)NC3=O)C(=O)N[C@@H](CCCNC(=N)N)C(=O)N[C@@H](CCCCN)C(=O)N[C@@H]([C@@H](C)O)C(=O)N2)NC(=O)[C@H](CCCNC(=N)N)NC(=O)[C@H](CO)NC(=O)[C@H](CCCCN)NC(=O)[C@@H]2CCCN2C(=O)[C@H]([C@@H](C)CC)NC(=O)[C@H]([C@@H](C)O)NC(=O)[C@H](CC(=O)O)NC1=O [desR1-S2] (H-CIDTIPKSRCTAFQCKHSMKYRLSFCRKTCGTC-OH; disulfide 1-33, 10-26, 15-30) |  | 2.54 | 2.5 | 0.54 | 0.54 |  |
| CC[C@H](C)[C@@H]1NC(=O)[C@@H](NC(=O)[C@H](CO)NC(=O)[C@@H](N)CCCNC(=N)N)CSSC[C@@H](C(=O)O)NC(=O)[C@H]([C@@H](C)O)NC(=O)CNC(=O)[C@@H]2CSSC[C@@H]3NC(=O)[C@H](CCC(N)=O)NC(=O)[C@H](Cc4ccccc4)NC(=O)[C@H](C)NC(=O)[C@H]([C@@H](C)O)NC(=O)[C@H](CSSC[C@H](NC(=O)[C@H](Cc4ccccc4)NC(=O)[C@H](CO)NC(=O)[C@H](CC(C)C)NC(=O)[C@H](CCCNC(=N)N)NC(=O)[C@H](Cc4ccc(O)cc4)NC(=O)[C@H](CCCCN)NC(=O)[C@H](CCSC)NC(=O)[C@H](C)NC(=O)[C@H](Cc4c[nH]cn4)NC(=O)[C@H](CCCCN)NC3=O)C(=O)N[C@@H](CCCNC(=N)N)C(=O)N[C@@H](CCCCN)C(=O)N[C@@H]([C@@H](C)O)C(=O)N2)NC(=O)[C@H](CCCNC(=N)N)NC(=O)[C@H](CO)NC(=O)[C@H](CCCCN)NC(=O)[C@@H]2CCCN2C(=O)[C@H]([C@@H](C)CC)NC(=O)[C@H]([C@@H](C)O)NC(=O)[C@H](CC(=O)O)NC1=O [S20A] | 1.04 | 5.9 |  |  |  | increase in relative free energy of binding: approximately 1 kcal/mol |
| CC[C@H](C)[C@@H]1NC(=O)[C@@H](NC(=O)[C@H](CO)NC(=O)[C@@H](N)CCCNC(=N)N)CSSC[C@@H](C(=O)O)NC(=O)[C@H]([C@@H](C)O)NC(=O)CNC(=O)[C@@H]2CSSC[C@@H]3NC(=O)[C@H](CCC(N)=O)NC(=O)[C@H](Cc4ccccc4)NC(=O)[C@H](C)NC(=O)[C@H]([C@@H](C)O)NC(=O)[C@H](CSSC[C@H](NC(=O)[C@H](CC4CCCCC4)NC(=O)[C@H](CO)NC(=O)[C@H](CC(C)C)NC(=O)[C@H](CCCNC(=N)N)NC(=O)[C@H](Cc4ccc(O)cc4)NC(=O)[C@H](CCCCN)NC(=O)[C@H](CCSC)NC(=O)[C@H](CO)NC(=O)[C@H](Cc4c[nH]cn4)NC(=O)[C@H](CCCCN)NC3=O)C(=O)N[C@@H](CCCNC(=N)N)C(=O)N[C@@H](CCCCN)C(=O)N[C@@H]([C@@H](C)O)C(=O)N2)NC(=O)[C@H](CCCNC(=N)N)NC(=O)[C@H](CO)NC(=O)[C@H](CCCCN)NC(=O)[C@@H]2CCCN2C(=O)[C@H]([C@@H](C)CC)NC(=O)[C@H]([C@@H](C)O)NC(=O)[C@H](CC(=O)O)NC1=O [F27Cha] |  | 0.7 | 0.7 | -0.21 | -0.21 | binding affinity for rat brain K channels relative to wild-type ShK toxin, in words: slightly increased toxin affinity |
